{"source": "PubChem BioAssay AID485294", "about": "(National Center for Advancing Translational Sciences (NCATS), 2010)", "note": "The whole screen tested about 370,000 compounds, of which about 150 (0.041%) were called active. The inconclusive results got no clear call from the source; some entries with a clear call stand among them for comparison. Calls come from the whole dose curve; as a rule, active = well fitted inhibition curve with a large enough effect; inconclusive = small, poorly fitted or top-dose-only effect; inactive = flat fitted curve, though single readings scatter. No potency is given beside an inconclusive call; the fits are too rough. Potency is the fitted concentration of half-maximal effect; tags give direction and shape of the fitted curve.", "data": [{"molecular_target": "Beta-lactamase (Escherichia coli (strain K12)) (UniProt P00811)", "sequence (P00811 whole entry, looked up)": "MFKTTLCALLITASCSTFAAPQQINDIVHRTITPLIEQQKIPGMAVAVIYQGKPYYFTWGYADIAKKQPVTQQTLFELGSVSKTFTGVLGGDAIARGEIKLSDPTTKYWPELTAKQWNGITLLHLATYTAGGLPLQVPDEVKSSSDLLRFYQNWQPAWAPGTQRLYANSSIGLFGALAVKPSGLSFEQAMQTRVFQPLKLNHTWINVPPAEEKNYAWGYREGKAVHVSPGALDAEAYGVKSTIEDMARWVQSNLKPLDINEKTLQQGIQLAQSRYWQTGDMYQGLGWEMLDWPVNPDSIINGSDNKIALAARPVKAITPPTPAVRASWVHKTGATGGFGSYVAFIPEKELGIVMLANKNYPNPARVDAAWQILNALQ", "assay": "qHTS Inhibitors of AmpC Beta-Lactamase (assay with detergent); note: nearly all actives have a fitted effect of over 25% in size", "conditions": "AmpC hydrolysis of nitrocefin, absorbance 480 nm, 0.01% Triton; series mostly up to 114 µM", "method_in_brief": "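AmpC (5.3 nM in the dispensed reagent) in 20 mM phosphate pH 7.0 with 0.01% (detergent screen) or 0.0001% Triton X-100 was preincubated with compounds for 15 min at room temperature. Nitrocefin was then added from an 800 uM solution, and hydrolysis was followed at 480 nm.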", "values": [{"smiles": "CCOC(=O)C1CCN(Cc2ccc(C(=O)OC)cc2)CC1", "Potency": "inconclusive [inhibitor, full curve, poor fit]"}, {"smiles": "Cn1c(=O)c2c(-c3ccccc3)n(-c3ccccc3O)cc2n(C)c1=O", "Potency": "inactive"}, {"smiles": "CC1CCN(C(=O)c2ccc(S(=O)(=O)N3CCCC3)cc2)CC1", "Potency": "inconclusive [inhibitor, partial curve]"}, {"smiles": "c1ccc(-c2csc(-n3cccn3)n2)cc1", "Potency": "inconclusive [inhibitor, full curve]"}, {"smiles": "COc1nnc(-c2ccc(N3CCOCC3)c(NC(=O)c3ccccc3)c2)c2ccccc12", "Potency": "inconclusive [inhibitor, full curve, poor fit]"}, {"smiles": "O=C(/C=C/c1ccco1)NC1CCCC1", "Potency": "inactive"}, {"smiles": "CS(=O)(=O)Oc1ccc(/C=N/NC(=O)c2ccncc2)cc1", "Potency": "inconclusive [inhibitor, full curve]"}, {"smiles": "Fc1ccc(/C=N/NC(=S)Nc2cccnc2)cc1", "Potency": "inactive"}, {"smiles": "O=c1[nH]c(CCl)nc2cc(-c3ccc(F)cc3)sc12", "Potency": "inactive"}, {"smiles": "Nc1c(C(=O)Nc2cccc(C(=O)O)c2)sc2nc3c(cc12)CCCC3", "Potency": "inconclusive [inhibitor, full curve, poor fit]"}, {"smiles": "CCc1cc(=O)oc2cc(OC(C)C(=O)NCC3CCC(C(=O)O)CC3)c(Cl)cc12", "note": "(stereo not given)", "Potency": "inconclusive [inhibitor, single point]"}, {"smiles": "Cc1oc(-c2cccs2)nc1CS(=O)CC(=O)NCc1ccc2c(c1)OCO2", "note": "(stereo not given)", "Potency": "inactive"}, {"smiles": "Cc1ccc(C)n1-c1sc2c(c1C#N)CCCC2", "Potency": "inconclusive [inhibitor, partial curve]"}, {"smiles": "Cc1ccc(C)n1-c1ccc(-n2cnnn2)cc1", "Potency": "inconclusive [inhibitor, full curve]"}, {"smiles": "COc1cc2nc(COc3ccccc3[N+](=O)[O-])oc(=O)c2cc1OC", "Potency": "inconclusive [inhibitor, full curve]"}, {"smiles": "Cc1[nH]c(C)c(S(=O)(=O)N(Cc2ccccc2)C(C)(C)C)c1C(=O)N1CCCC1", "Potency": "inconclusive [inhibitor, partial curve]"}, {"smiles": "COc1ccc(/C=N/Nc2nc(N3CCCC3)nc(N3CCCC3)n2)cc1O", "Potency": "inactive"}, {"smiles": "CNC(=O)NC(=O)C(C)OC(=O)c1cc2c(s1)CCCCC2", "note": "(stereo not given)", "Potency": "inconclusive [inhibitor, full curve, poor fit]"}, {"smiles": "COc1ccc(NC2=NCC(=O)N2c2ccccc2F)c(OC)c1", "Potency": "inconclusive [inhibitor, partial curve, poor fit]"}, {"smiles": "Cc1ccc(OCC(=O)Nc2ccc(C(=O)OCc3cc(=O)n4ccsc4n3)cc2)cc1C", "Potency": "inactive"}]}]}
